According to PubChem BioAssay AID1345082 (National Center for Advancing Translational Sciences (NCATS), 2018):
Screen size: about 94,000 compounds; about 4,000 (4.3%) were called active. Inconclusive results, whose numbers are uncertain, are shown with a selection of clear calls. Calls come from the whole dose curve; as a rule, active = well fitted inhibition curve with a large enough effect; inconclusive = small, poorly fitted or top-dose-only effect; inactive = no such curve, though single readings can be large or run the other way. Potencies beside an inconclusive call are fits to weak or partial responses and may not hold up.

assay: Cytotoxic Profiling in NIH 3T3 Cell Line of Diverse Libraries Using Quantitative High-Throughput Screening; settings: NIH 3T3 viability, CellTiter-Glo ATP luminescence, 48-72 h; series mostly up to 96.7 µM; note: nearly all actives have a fitted effect of over 55% in size
Summary of the method: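 Cells were seeded at 400 per well, treated with pin-transferred compound, and kept 48 or 72 hr at 37 °C before CellTiter-Glo addition and luminescence imaging of cellular ATP.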
Potency is the fitted concentration of half-maximal effect; tags give direction and shape of the fitted curve.

Structure (SMILES) | Potency
COc1ccccc1C(=O)N1CCN(c2cc(-c3ccc(F)cc3)[nH]n2)CC1 | inconclusive: 39.8 µM [inhibitor, partial curve]
CCCCCNC(=O)c1cc(-c2cccc(C(F)(F)F)c2)nc2c1cnn2C | inactive
COCC1CN(C)CC12CCN(S(=O)(=O)Cc1ccc(F)cc1)CC2 (stereo unspecified) | inconclusive: 50.1 µM [inhibitor, partial curve, poor fit]
CCn1cc(S(=O)(=O)N2C[C@@H](Oc3cccnc3)C[C@H]2C(N)=O)cn1 | inactive
COc1cccc(C(=O)N2CCC(=O)N(CCC#N)C[C@H]3COc4ccc(C)cc4[C@H]32)c1 | inconclusive: 70.8 µM [inhibitor, partial curve, poor fit]
CCC1=C(C(=O)OC)C(c2ccccc2)N2C(CC(=O)NCCc3cccs3)=CSC2=N1 (stereo unspecified) | inconclusive: 44.7 µM [inhibitor, partial curve, poor fit]
COc1ccc(NC(=O)c2cnc3c(c2)N(C(=O)Cc2cccc(C(F)(F)F)c2)CCC3)cn1 | inconclusive: 39.8 µM [inhibitor, partial curve, poor fit]
COc1cc2cc(CN3CCC(N(C)C)C3)c(-c3cccc(Cl)c3)nc2cc1OC (stereo unspecified) | inconclusive: 56.2 µM [inhibitor, partial curve, poor fit]
Cc1cccc(NC(=O)c2cc3n(n2)CC(c2ccc4c(c2)OCO4)OC3)c1 (stereo unspecified) | inconclusive: 31.6 µM [inhibitor, full curve]
CNC(=O)c1cn2cc(-c3ccccc3)sc2n1 | inconclusive: 17.8 µM [inhibitor, full curve, poor fit]
COc1ccc(-c2cc(N3CCCC(NC(=O)Cc4cccs4)C3)n[nH]2)cc1 (stereo unspecified) | inconclusive: 44.7 µM [inhibitor, partial curve, poor fit]
COc1ccc(F)cc1-c1cccc(C(=O)NCCNC(=O)Cc2cccc(Cl)c2)c1 | active: 39.8 µM
Cc1cccc(NC(=O)N2CCC(CCNC(=O)Cc3ccccc3F)CC2)c1 | inactive
CNC(=O)c1cc(C2CC2)nc2c1c(C1CCCN1C(=O)c1ccc(F)cc1)nn2C (stereo unspecified) | inactive
CCN1c2cc(C(=O)NCc3ccc(Cl)cc3)ccc2C(=O)N2CCCCC21 (stereo unspecified) | inconclusive: 56.2 µM [inhibitor, partial curve, poor fit]
Cc1nc(CN2C[C@H](C(=O)NCc3ccc4c(c3)OCO4)C[C@@H]2c2ccc(F)cc2)cs1 | inconclusive: 50.1 µM [inhibitor, partial curve, poor fit]
COc1cccc(NC(=O)c2cnc3c(c2)N(C(=O)Cc2ccc(C(C)C)cc2)CCC3)c1 | inconclusive: 39.8 µM [inhibitor, partial curve, poor fit]
CCNC(=O)N(C1CC1)C1CCOC2(CCN(C(=O)c3ccc(OC)nc3)CC2)C1 (stereo unspecified) | inconclusive: 70.8 µM [inhibitor, single point]
O=C(NCCCc1ccccc1)c1ccc2nnc(-c3cncc(Cl)c3)n2c1 | inconclusive: 50.1 µM [inhibitor, partial curve, poor fit]
O=C(NCC1CCN(c2cc(-c3ccc(Cl)cc3)[nH]n2)CC1)c1ccc(=O)[nH]c1 | inconclusive: 50.1 µM [inhibitor, partial curve, poor fit]
COc1ccccc1Nc1ccnc(N2CCC[C@H]2C(=O)N2CCC(Cc3ccccc3)CC2)n1 | inconclusive: 31.6 µM [inhibitor, full curve, poor fit]
O=C(NCc1ccccc1)[C@H]1CN(Cc2ccccc2)C[C@H]1C(=O)O | inactive

Structure (SMILES) | Potency
CNC(=O)N1CCC(C2CCN(Cc3ccncc3F)C2)CC1 (stereo unspecified) | inactive
C[S+](=O)([O-])N1CCC(Cn2ccc3c(N4CCOCC4)nc(-c4cccc(O)c4)cc32)CC1 | inconclusive: 50.1 µM [inhibitor, partial curve, poor fit]
COc1ccc(-n2nc(C3CCCN(C(=O)Cc4ccccn4)C3)[nH]c2=O)cc1 (stereo unspecified) | inactive
Cc1cc(CNC(=O)C2(C(N)=O)CC2)c2[nH]c(-c3ccccc3)c(C)c2c1 | inconclusive: 44.7 µM [inhibitor, partial curve, poor fit]
COc1cccc(-c2cccc(C(=O)N3CCN(C(=O)N(C)C)CC3)c2)c1 | inactive
CCCC(=O)N1Cc2ccccc2CC2(CCN(Cc3ccncc3)C2)C1 (stereo unspecified) | inactive
CCC(=O)N(C1CCOCC1)C1CCN(S(=O)(=O)c2ccccc2F)CC1 | inactive
CCSc1ncc(-c2c(-c3ccccc3)ncn2CC[C@@H](C)CO)cn1 | inconclusive: 35.5 µM [inhibitor, full curve]
Cc1ccc(C(=O)N2CCC(N3C(=O)CCC3C(=O)NCc3ccccc3)CC2)c(C)c1 (stereo unspecified) | inactive
O=C(Nc1ccc(F)cc1)[C@@H]1C[C@@H](c2ccc(F)cc2)N([S+](=O)([O-])c2cccnc2)C1 | inconclusive: 35.5 µM [inhibitor, partial curve, poor fit]
CN(C)CC(=O)N1CC(F)(F)C[C@H]1c1nc(C2CC2)no1 | inactive
Cc1ccc(N2CC(c3noc(-c4cc(F)ccc4Cl)n3)CC2=O)cc1 (stereo unspecified) | inconclusive: 50.1 µM [inhibitor, partial curve, poor fit]
Cc1oc2c(c1C(=O)N(C)CC(=O)N1CCOCC1)CN(Cc1ccc(F)cc1)CC2 | inactive
O=C(C1CCCN1C(=O)NC1CCCC1)N1CCC(N2Cc3ccccc3C2=O)CC1 (stereo unspecified) | inactive
Cc1ccc2c(c1)N1C(=O)OC[C@@H]1CCN(C(=O)c1cc(C)on1)C2 | inactive
Cc1ccc(-c2nc(C(=O)N3CCN(Cc4ccc5c(c4)OCO5)CC3)no2)cc1 | inconclusive: 70.8 µM [inhibitor, single point]
CCC(=O)Nc1ccc(C2(C(=O)NC(C)C)CCC2)cc1 | inactive
CN1CCN(C(=O)C2CCCCN2Cc2ccc(-c3cccs3)cc2)CC1 (stereo unspecified) | inconclusive: 50.1 µM [inhibitor, partial curve, poor fit]
COC1CCCOC12CCN(C(=O)CCCn1cncn1)CC2 (stereo unspecified) | inactive
Cc1ccc(C(=O)N2CCC3(CC2)CCN(Cc2cccs2)c2ccccc2O3)cc1 | inconclusive: 44.7 µM [inhibitor, partial curve, poor fit]
CCOc1cc(C(=O)N2CCC(Cc3nc(-c4ccccc4)no3)CC2)cc(OCC)c1OCC | inconclusive: 56.2 µM [inhibitor, partial curve, poor fit]
O=c1cc(-c2cccnc2)oc2c(NCc3ccc(F)cc3)nccc12 | active: 50.1 µM

Structure (SMILES) | Potency
COc1cccc(CN2CC[C@@](C)(O)[C@H](N3CCCC3)C2)c1OC | inconclusive: 50.1 µM [inhibitor, partial curve, poor fit]
Cc1cnc(C(=O)N2CCOCC(CO)C2)cn1 (stereo unspecified) | inactive
O=C(c1nnc(COc2ccc(F)cc2F)n1-c1ccccc1)N1CCC[C@@H]1c1cccc(F)c1 | inconclusive: 50.1 µM [inhibitor, partial curve, poor fit]
O=C(NCCc1ccccc1)C1CCN(c2cn[nH]c(=O)c2)C1 (stereo unspecified) | inactive
c1ccc2ncc(CN3CC[C@H](c4nc5ccccc5[nH]4)C3)cc2c1 | inconclusive: 100 µM [inhibitor, partial curve]
Cc1noc2c(Nc3ccc(Cl)cc3)cc(-c3cccnc3)nc12 | inconclusive: 44.7 µM [inhibitor, full curve, poor fit]
Oc1ccc(-c2nc(C3CC3)nc3c2CN(Cc2ccsc2)CC3)cc1 | inconclusive: 44.7 µM [inhibitor, partial curve, poor fit]
Cc1cc(N2CCN(Cc3nc(-c4cccc(Cl)c4)no3)CC2)cc(C)n1 | active: 22.4 µM
C[C@@H]1CN(C2(C(=O)N[C@@H](C)C(N)=O)Cc3ccccc3C2)C[C@H](C)O1 | inactive
CN(Cc1ccsc1)Cc1ccc(C2CCCCO2)o1 (stereo unspecified) | inconclusive: 89.1 µM [inhibitor, single point]
O=C(Cn1ccn2nc(-c3ccc(F)cc3)c(CO)c2c1=O)Nc1cccc(Cl)c1 | inconclusive: 44.7 µM [inhibitor, partial curve, poor fit]
Cc1noc(-c2cn(C3CCCN(C(=O)c4ccc(Cl)s4)C3)nn2)n1 (stereo unspecified) | inactive
COc1ccccc1C1CNC(=O)c2nc(-c3cc(C(C)(C)C)[nH]n3)[nH]c2C1 (stereo unspecified) | inconclusive: 79.4 µM [inhibitor, partial curve, poor fit]
COc1ccc(CN2C(=O)CO[C@H](c3ccc(NS(=O)(=O)c4ccc(F)cc4)cc3)[C@H]2CO)cc1 | active: 35.5 µM
O=C(NC1CCCC1)N1CCCC(C(=O)N2CCCC(c3nc4ncccc4[nH]3)C2)C1 (stereo unspecified) | inactive
Cn1ccnc1CNC[C@H]1Cn2c(-c3ccccc3)cnc2CO1 | inactive
COc1ccc(NC(=O)N2CCCC(c3nc(C4CCOCC4)no3)C2)cc1 (stereo unspecified) | inconclusive: 56.2 µM [inhibitor, partial curve, poor fit]
CN1CC(=O)N(C2CCC2)Cc2c(NC3CCCCC3)ncnc21 | inconclusive: 50.1 µM [inhibitor, partial curve]
COc1ccc(-c2cc(N3CCCC(NC(=O)c4ccc(F)c(F)c4)C3)n[nH]2)cc1 (stereo unspecified) | inconclusive: 70.8 µM [inhibitor, single point]
COc1ccccc1CN[C@H]1CC(C)(C)[C@@H]2C[C@@](C)(O)CC[C@]12CCC(=O)NCCc1c[nH]c2ccccc12 | active: 28.2 µM
O=C(Cc1ccccc1Cl)N1CC(c2nnc(-c3ccncc3)o2)C2(CCOCC2)C1 (stereo unspecified) | inactive
Cc1nc2n(c1C(=O)NCC1CC1)CCC(Nc1ccc(F)cc1)C2 (stereo unspecified) | inactive
